Measured values: paper PMC9911399, “Two distinct binding modes provide the RNA-binding protein RbFox with extraordinary sequence specificity”
Positions count from the first letter of the chain named. The list shows a part of the results.

T1: RBFOX1 RRM (Homo sapiens, UniProt Q9NWB1 109-208)
T1 sequence: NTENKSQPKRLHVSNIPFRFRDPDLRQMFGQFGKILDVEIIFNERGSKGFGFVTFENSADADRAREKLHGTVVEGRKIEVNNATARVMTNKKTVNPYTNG

B1: CUGGAAC (DNA:RNA)
RNA: GGGAGACCGGAAUUCAGAUUGUCCCUGGAACUUAAAUCCCGUCGUAGCCACCA
DNA 1: CAATCTGAATTCCGGTCTCCC
DNA 2: TGGTGGCTACGACGGGATT
B2: CGUCCAA (DNA:RNA)
RNA: B1 RNA with U26G, G27U, G28C, A29C, C31A
DNA 1: CAATCTGAATTCCGGTCTCCC
DNA 2: TGGTGGCTACGACGGGATT
B3: ACUUAAG (DNA:RNA)
RNA: B1 RNA with C25A, U26C, G27U, G28U, C31G
DNA 1: CAATCTGAATTCCGGTCTCCC
DNA 2: TGGTGGCTACGACGGGATT
B4: GAACCUU (DNA:RNA)
RNA: GGGAGACCGGAAUUCAGAUUGUCCGAACCUUUUAAAUCCCGUCGUAGCCACCA
DNA 1: CAATCTGAATTCCGGTCTCCC
DNA 2: TGGTGGCTACGACGGGATT
B5: UAGGUAA (DNA:RNA)
RNA: B1 RNA with C25U, U26A, A29U, C31A
DNA 1: CAATCTGAATTCCGGTCTCCC
DNA 2: TGGTGGCTACGACGGGATT
B6: AUAUCCG (DNA:RNA)
RNA: B4 RNA with G25A, A26U, C28U, U30C, U31G
DNA 1: CAATCTGAATTCCGGTCTCCC
DNA 2: TGGTGGCTACGACGGGATT
B7: AGCCUGC (DNA:RNA)
RNA: B1 RNA with C25A, U26G, G27C, G28C, A29U, A30G
DNA 1: CAATCTGAATTCCGGTCTCCC
DNA 2: TGGTGGCTACGACGGGATT
B8: UCAGUAG (DNA:RNA)
RNA: B1 RNA with C25U, U26C, G27A, A29U, C31G
DNA 1: CAATCTGAATTCCGGTCTCCC
DNA 2: TGGTGGCTACGACGGGATT
B9: AAUAAUC (DNA:RNA)
RNA: B1 RNA with C25A, U26A, G27U, G28A, A30U
DNA 1: CAATCTGAATTCCGGTCTCCC
DNA 2: TGGTGGCTACGACGGGATT
B10: ACCAACG (DNA:RNA)
RNA: B1 RNA with C25A, U26C, G27C, G28A, A30C, C31G
DNA 1: CAATCTGAATTCCGGTCTCCC
DNA 2: TGGTGGCTACGACGGGATT
B11: CAACCGA (DNA:RNA)
RNA: B4 RNA with G25C, U30G, U31A
DNA 1: CAATCTGAATTCCGGTCTCCC
DNA 2: TGGTGGCTACGACGGGATT
B12: AGACAGC (DNA:RNA)
RNA: B1 RNA with C25A, U26G, G27A, G28C, A30G
DNA 1: CAATCTGAATTCCGGTCTCCC
DNA 2: TGGTGGCTACGACGGGATT
B13: AUAUAGU (DNA:RNA)
RNA: B1 RNA with C25A, G27A, G28U, A30G, C31U
DNA 1: CAATCTGAATTCCGGTCTCCC
DNA 2: TGGTGGCTACGACGGGATT
B14: GGGCUAC (DNA:RNA)
RNA: B1 RNA with C25G, U26G, G28C, A29U
DNA 1: CAATCTGAATTCCGGTCTCCC
DNA 2: TGGTGGCTACGACGGGATT
B15: AUUGACG (DNA:RNA)
RNA: B1 RNA with C25A, G27U, A30C, C31G
DNA 1: CAATCTGAATTCCGGTCTCCC
DNA 2: TGGTGGCTACGACGGGATT
B16: GACACCG (DNA:RNA)
RNA: B4 RNA with A27C, C28A, U30C, U31G
DNA 1: CAATCTGAATTCCGGTCTCCC
DNA 2: TGGTGGCTACGACGGGATT
B17: GUCUUCC (DNA:RNA)
RNA: B1 RNA with C25G, G27C, G28U, A29U, A30C
DNA 1: CAATCTGAATTCCGGTCTCCC
DNA 2: TGGTGGCTACGACGGGATT
B18: ACCUAAG (DNA:RNA)
RNA: B1 RNA with C25A, U26C, G27C, G28U, C31G
DNA 1: CAATCTGAATTCCGGTCTCCC
DNA 2: TGGTGGCTACGACGGGATT
B19: AGUUCAU (DNA:RNA)
RNA: B4 RNA with G25A, A26G, A27U, C28U, U30A
DNA 1: CAATCTGAATTCCGGTCTCCC
DNA 2: TGGTGGCTACGACGGGATT
B20: AUAGGUC (DNA:RNA)
RNA: B1 RNA with C25A, G27A, A29G, A30U
DNA 1: CAATCTGAATTCCGGTCTCCC
DNA 2: TGGTGGCTACGACGGGATT

Target: T1, RBFOX1 RRM
Assay: EMSA; HiTS-Eq, 1 nM pool, 10 min; buffer printed only for the single-RNA assays: 10 mM Tris pH 7.5, 150 mM NaCl, 3.4 mM EDTA, 0.001% NP-40, 30 C
Conditions: tags: His6 N-terminal (pET28a); label: 5' 32P
Procedure, shortened: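 Relative association constants, normalised to the cognate motif, were derived by comparing read counts of each RNA species with those of the control reaction. The RNA sequenced was the free fraction, separated by 8% native PAGE after a 10 min equilibration in 50 µL of 1 nM 5′-radiolabelled RNA (7 randomized nucleotides) with increasing concentrations of purified wild-type or mutant RbFox RRM.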

| Binder | binding signal |
| --- | --- |
| B1 | 0.0213 KA relative to UGCAUGU |
| B2 | 0.00204 KA relative to UGCAUGU |
| B3 | 0.00597 KA relative to UGCAUGU |
| B4 | 0.00478 KA relative to UGCAUGU |
| B5 | 0.0128 KA relative to UGCAUGU |
| B6 | 0.00466 KA relative to UGCAUGU |
| B7 | 0.0203 KA relative to UGCAUGU |
| B8 | 0.00928 KA relative to UGCAUGU |
| B9 | 0.000428 KA relative to UGCAUGU |
| B10 | 0.00313 KA relative to UGCAUGU |
| B11 | 0.00383 KA relative to UGCAUGU |
| B12 | 0.00652 KA relative to UGCAUGU |
| B13 | 0.00253 KA relative to UGCAUGU |
| B14 | 0.0173 KA relative to UGCAUGU |
| B15 | 0.00843 KA relative to UGCAUGU |
| B16 | 0.00634 KA relative to UGCAUGU |
| B17 | 0.0185 KA relative to UGCAUGU |
| B18 | 0.00359 KA relative to UGCAUGU |
| B19 | 0.00454 KA relative to UGCAUGU |
| B20 | 0.0113 KA relative to UGCAUGU |
